# The whole screen tested about 230,000 compounds, of which about 1,500 (0.65%) were called active. Inconclusive results, whose numbers are uncertain, are shown with a selection of clear calls. Calls follow the shape of the dose curve; as a rule, active = well fitted inhibition curve with a large enough effect; inconclusive = small, poorly fitted or top-dose-only effect; inactive = no such curve, though single readings can be large or run the other way. Potencies of inconclusive entries are doubtful fits and often do not repeat.
# Target: Lethal(3)malignant brain tumor-like protein 1 (Homo sapiens) (UniProt Q9Y468)
# Sequence of UniProt Q9Y468 (Q9Y468 whole entry, looked up): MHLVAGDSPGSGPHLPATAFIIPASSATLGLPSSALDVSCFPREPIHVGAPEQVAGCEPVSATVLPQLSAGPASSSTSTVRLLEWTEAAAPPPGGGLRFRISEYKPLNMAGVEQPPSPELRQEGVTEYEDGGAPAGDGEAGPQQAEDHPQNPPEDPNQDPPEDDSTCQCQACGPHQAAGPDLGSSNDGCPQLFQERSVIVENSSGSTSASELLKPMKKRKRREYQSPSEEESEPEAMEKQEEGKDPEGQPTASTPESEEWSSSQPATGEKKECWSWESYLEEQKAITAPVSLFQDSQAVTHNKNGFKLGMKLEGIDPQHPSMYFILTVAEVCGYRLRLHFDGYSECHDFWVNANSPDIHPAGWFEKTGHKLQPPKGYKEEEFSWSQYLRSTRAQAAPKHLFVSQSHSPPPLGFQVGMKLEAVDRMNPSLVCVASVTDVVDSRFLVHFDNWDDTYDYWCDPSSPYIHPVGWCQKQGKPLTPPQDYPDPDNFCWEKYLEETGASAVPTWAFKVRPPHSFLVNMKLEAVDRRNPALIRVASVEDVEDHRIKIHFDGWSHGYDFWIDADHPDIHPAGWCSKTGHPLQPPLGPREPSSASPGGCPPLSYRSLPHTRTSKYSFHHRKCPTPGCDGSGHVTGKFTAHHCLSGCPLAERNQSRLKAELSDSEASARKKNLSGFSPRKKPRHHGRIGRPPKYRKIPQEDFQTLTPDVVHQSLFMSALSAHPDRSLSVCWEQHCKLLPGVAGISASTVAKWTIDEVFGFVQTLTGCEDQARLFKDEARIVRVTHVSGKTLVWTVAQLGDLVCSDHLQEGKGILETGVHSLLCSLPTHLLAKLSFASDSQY
# Experiment: qHTS Assay for the Inhibitors of L3MBTL1; also: nearly all actives have a fitted effect of over 60% in size
# Details: AlphaScreen L3MBTL1–H3K9me1 peptide binding; activity, negative = inhibition: at 57.1 µM (top of the series)
# How it was run: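 Displacement of a biotinylated histone H3(1-15) peptide monomethylated at Lys9 (75 nM) from L3MBTL1 (50 nM) was measured by AlphaScreen after a 30 min room-temperature compound incubation; cefsulodin titration served as intraplate control.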
# % is scaled to controls: 0 for no effect and ±100 for the full control effect; potency is read from the fitted curve at half-maximal effect; tags tell the direction and shape of the fitted curve.
SMILES,Potency,"activity, negative = inhibition"
COc1ccc(CN(C)CC(=O)Nc2sc3c(c2C#N)CCC3)cc1OC,"inconclusive: 28.2 µM [inhibitor, partial curve]",–
Nc1ccccc1Nc1cc(-c2cccc(Cl)c2)nn1-c1ccccc1,"inconclusive: 14.1 µM [inhibitor, partial curve]",–
COCC(=O)N(C)C1(c2nnnn2CCOC(=O)Nc2cccc3ccccc23)CCCC1,"inconclusive: 25.1 µM [inhibitor, single point]",–
Oc1ccc2ccccc2c1CNc1ccc(Br)cn1,inactive,–
COc1ccc(-c2nnc(SCC(=O)N3CCCC3=O)n2N)cc1OC,inactive,–
CN(C)c1ccc(NC(=O)COC(=O)c2cc(Cl)ccc2[N+](=O)[O-])cc1,"inconclusive: 15.8 µM [inhibitor, partial curve]",–
Cc1ccc(NC(=O)c2cc(C)n(-c3ccccc3)c2C)cc1,inactive,–
CC(=O)Nc1ccc(C2=NNC(=Nc3ccc(S(=O)(=O)N4CCOCC4)cc3)SC2)cc1,"inconclusive: 2.51 µM [inhibitor, full curve]",–
O=[N+]([O-])c1ccc2nc(-c3ccccn3)[nH]c2c1,"inconclusive: 39.8 µM [inhibitor, partial curve]",–
COc1ccccc1Oc1coc2cc(OC(=O)N3CCOCC3)ccc2c1=O,"inconclusive: 2.24 µM [inhibitor, single point]",–
O=C(NCCSc1c[nH]c2ccccc12)c1ccco1,"inconclusive: 39.8 µM [inhibitor, partial curve]",–
Cc1ccc(C(=O)Oc2ccc(C(=O)COC(=O)C3CC(=O)N(Cc4ccco4)C3)cc2)cc1 (centres undefined),"inconclusive: 31.6 µM [inhibitor, single point]",–
O=C(NCc1ccc2c(c1)OCO2)c1cc2ncc(Br)cn2n1,"inconclusive: 2 µM [inhibitor, single point]",–
O=C(Nc1cccc(-c2nc3cccnc3s2)c1)C1c2ccccc2Oc2ccccc21,inactive,–
C#CCOCCOCCOCCNc1nc(N2CCN(C(=O)[C@H](CCC(=O)O)n3cc([C@@H](N)CCCCN)nn3)CC2)nc(N2CCN(C(=O)[C@H](CCC(=O)O)n3cc([C@@H](N)CCCCN)nn3)CC2)n1,"inconclusive: 28.2 µM [inhibitor, single point]",–
O=C(NCc1ccco1)c1ccc2c(=O)n(Cc3ccco3)c(SCC(=O)N3CCCC3)nc2c1,"inconclusive: 28.2 µM [inhibitor, single point]",–
CCOc1ccc(/C=N/N2CCN(Cc3ccccc3)CC2)cc1,"inconclusive: 39.8 µM [inhibitor, single point]",–
Cc1ccc(S(=O)(=O)CNC(=O)c2ccccc2)cc1,inactive,–
COc1cc(OC)c(OC)cc1CNc1cc(C)ccc1OC,"inconclusive: 31.6 µM [inhibitor, partial curve]",–
O=C(CSc1ccsc1[N+](=O)[O-])NCc1ccco1,"inconclusive: 4.47 µM [inhibitor, partial curve]",–
CC(c1ccccc1)n1c(-c2ccc(Cl)cc2)n[nH]c1=S (centres undefined),inactive,–
CN(C)c1ccc(N=Nc2ccccc2C(=O)OCC(=O)N(C)C2CCCCC2)cc1,active: 28.2 µM,–

SMILES,Potency,"activity, negative = inhibition"
Cc1cc(=O)oc2cc(OCc3ccc(C(=O)N4CCN(c5ccccc5)CC4)cc3)ccc12,"inconclusive: 25.1 µM [inhibitor, single point]",–
Oc1ccc2ccccc2c1C=NCc1ccccc1,"inconclusive: 8.91 µM [inhibitor, partial curve]",–
O=C1c2ccccc2C(=O)N1CCCC(=O)N1CCCc2ccccc21,inactive,–
Cc1cc(=O)n2[nH]c(-c3ccc(Cl)cc3)cc2n1,"inconclusive: 6.31 µM [inhibitor, partial curve]",–
O=C(NC(=S)N1CCN(Cc2ccc3c(c2)OCO3)CC1)c1ccc(Cl)cc1,"inconclusive: 20 µM [inhibitor, partial curve]",–
O=C(Nc1nccs1)c1cc(-c2ccco2)nc2ccccc12,active: 14.1 µM,–
CCC(=O)Nc1ccc(NC(=S)NC(=O)/C=C/c2ccco2)cc1,–,inactive: 7.15% [at 2.29 µM]
CCN(CC)c1ccc(NC(=O)COC(=O)CSc2ccc(Br)cc2C)cc1,"inconclusive: 15.8 µM [inhibitor, partial curve]",–
CCOc1ccc(-c2nnc(N(CC)C(=O)C3CCC3)s2)cc1,inactive,–
Cc1ccc(Oc2ccc3c(c2)C(=O)N(c2ccc(S(=O)(=O)Nc4nccs4)cc2)C3=O)cc1,inactive,–
Clc1cccc(Cl)c1CO/N=C/c1c(-c2ccccc2)nc2n1CCS2,"inconclusive: 35.5 µM [inhibitor, single point]",–
CC(=O)c1ccccc1Oc1cc(NN2CCCCC2)c([N+](=O)[O-])cc1[N+](=O)[O-],active: 20 µM,–
CC(O)CSc1nc2c(c(=O)[nH]c(=O)n2C)n1CC(O)COc1ccccc1 (centres undefined),inactive,–
O=C(O)c1ccc(/C=C/c2nc3sc4c(c3c(=O)[nH]2)CCC4)cc1,"inconclusive: 35.5 µM [inhibitor, single point]",–
CC(/C=C/c1ccco1)=N\NC(=O)c1cc(C)[nH]n1,"inconclusive: 39.8 µM [inhibitor, single point]",–
COc1ccc(-c2nnc(N(C)C(=O)C3CCCO3)s2)cc1 (centres undefined),"inconclusive: 10 µM [inhibitor, partial curve, poor fit]",–
CCN1C(=O)/C(=C2\SC(=S)N(NC(=O)c3ccccc3O)C2=O)c2ccccc21,"inconclusive: 35.5 µM [inhibitor, single point]",–
COC(=O)c1cc(=O)n(CCc2ccccc2)c(=Nc2ccc(F)cc2)s1,inactive,–
O=C(CCCN1C(=O)/C(=C/c2cccs2)SC1=S)NNC(=O)c1ccccc1O,"inconclusive: 0.708 µM [inhibitor, single point]",–
COC(=O)c1ccc(CNC(=O)c2coc3ccccc3c2=O)cc1,"inconclusive: 0.708 µM [inhibitor, full curve, poor fit]",–
COc1cc(/C=N/NC(=O)Cc2ccc(Br)cc2)cc(OC)c1O,inactive,–
CN1CC(c2ccccn2)C2(SC(=S)N(Cc3ccccc3)C2=O)C12C(=O)Nc1ccccc12 (centres undefined),"inconclusive: 39.8 µM [inhibitor, single point]",–

# Source: PubChem BioAssay AID485360 (National Center for Advancing Translational Sciences (NCATS), 2010)
